US7524517B2, “Methods and compositions for P2X receptor calcium entry channels and other calcium entry mechanisms” (UAB Research Foundation, priority 2003, dated 2009)

Tested on: IB3-1 CF cells
Experiment: Coulter Counter cell volume assay (regulatory volume decrease)
Conditions: NMDG-containing solution, extracellular Ca2+ present

[Cl-].[Cl-].[Zn+2] [ZnCl2, zinc chloride]
regulatory volume decrease (RVD) after hypotonic cell swelling: corrected
